Values marked as one replicate rest on one cluster of the flow cell; about a third of the high ones do not repeat.
Tested on: ATP
Assay: switch fluorescence ratio, 500 uM ATP over buffer (Cy3 cluster intensity, sum of 5 cycles each) (fold (ratio)); higher = stronger signal-on switching upon ATP binding; sequences stand for … in TCGTCGGCAGCGTCAGATGTGTATAAGAGACAGTTTTTTTTTTTTTTTTTTTTTTTTT…TC
Details: aptamer strand: ATP DNA aptamer (quencher-CACCTGGGGGAGTATTGCGGAGGAAGG + anchor), 100 nM annealed; ATP concentration: 500 uM; one replicate
In short: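 Five buffer/ATP imaging cycles were run on Cy3-labelled switching-strand clusters on a modified Illumina MiSeq flow-cell, with NaOH stripping and re-annealing between cycles. In each cycle, clusters annealed to 100 nM quencher-labelled ATP aptamer were imaged in selection buffer, then after 15 min with 500 uM ATP at 22 °C. Per cluster, the fluorescence ratio is summed target-cycle over summed buffer-cycle Cy3 intensity, averaged per switch-domain sequence. Only clusters within 100-1000 RFU were kept.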
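Note: ATP exposure 15 min at 22 °C before imaging.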

| Sequence | switch fluorescence ratio |
| --- | --- |
| CATCGAGACA | 1.02 |
| CATCGAGTAA | 1.05 |
| CATCGGAGTT | 1 |
| CATCTAGCCG | 0.964 |
| CATCTAGTAT | 1.03 |
| CATCTCTACA | 1.03 |
| CATCTGGGGT | 1.02 |
| CATGAAAAGG | 1.04 |
| CATGAATCTG | 1.07 |
| CATGAATGCT | 0.969 |
| CATGACCACG | 0.927 |
| CATGACGAGC | 1.1 |
| CATGACGCA | 1.14 |
| CATGAGTGTG | 1 |
| CATGATAGCT | 0.982 |
| CATGCAGAAG | 1.05 |
| CATGCATTCC | 1.68 |
| CATGCATTGG | 1.01 |
| CATGCCCTGT | 1.09 |
| CATGCCTTAT | 1.02 |
| CATGCGCGGT | 1.54 |
| CATGCGTGAA | 0.999 |
| CATGCGTGTC | 1.17 |
| CATGCTATAT | 1.03 |
| CATGCTATGA | 0.982 |

| Sequence | switch fluorescence ratio |
| --- | --- |
| CATGCTGCG | 1.09 |
| CATGGACTTG | 1.03 |
| CATGGGACGA | 1.02 |
| CATGGGCCCT | 1.26 |
| CATGGGGACC | 0.986 |
| CATGGGTGTA | 1.02 |
| CATGGTGCTT | 1.03 |
| CATGGTTTAC | 0.989 |
| CATGTAATGC | 1.28 |
| CATGTACTCT | 1.08 |
| CATGTGGGCC | 1.02 |
| CATGTTAAAG | 0.99 |
| CATGTTGGTG | 0.978 |
| CATTAACTCA | 1.08 |
| CATTAAGGAT | 0.995 |
| CATTAATACT | 1.11 |
| CATTAATTAT | 0.99 |
| CATTAGAGCT | 0.991 |
| CATTAGCAG | 1.11 |
| CATTAGTAAC | 0.999 |
| CATTAGTGAT | 1.03 |
| CATTATAACC | 0.981 |
| CATTATATAC | 1.15 |
| CATTATATCA | 1.02 |
| CATTATTTTA | 0.963 |

| Sequence | switch fluorescence ratio |
| --- | --- |
| CATTCAGTGG | 0.961 |
| CATTCCCTTG | 1.02 |
| CATTCCGATA | 1.35 |
| CATTCCGTAT | 1.09 |
| CATTCGGGAA | 1.23 |
| CATTCGTCCG | 1.34 |
| CATTCTTGGC | 0.981 |
| CATTGAATTT | 1.01 |
| CATTGACGCA | 1.32 |
| CATTGATGTC | 1.03 |
| CATTGCATTG | 1.02 |
| CATTGCTGTT | 1 |
| CATTGGAGCG | 1.02 |
| CATTGGGCCC | 0.989 |
| CATTGGTTCT | 0.978 |
| CATTGTAAAA | 0.97 |
| CATTGTTTTT | 0.992 |
| CATTTACGTG | 1.03 |
| CATTTATTTA | 1.03 |
| CATTTCTACG | 1.1 |
| CATTTCTTAA | 0.984 |
| CATTTGGTG | 0.97 |
| CATTTGTGA | 1 |
| CATTTTAATG | 0.985 |
| CATTTTCAGG | 0.981 |

| Sequence | switch fluorescence ratio |
| --- | --- |
| CCAAACCACA | 1.08 |
| CCAAACTCAC | 1.21 |
| CCAAACTTTT | 1.02 |
| CCAAAGGGCG | 1.12 |
| CCAAATCTGA | 1.03 |
| CCAACAACCC | 1.08 |
| CCAACAGGT | 2.13 |
| CCAACCGCGA | 4.94 |
| CCAACGAGTC | 1.18 |
| CCAAGAGGGT | 1.03 |
| CCAAGCCGCG | 1.09 |
| CCAAGGCGCG | 1.02 |
| CCAAGGTATA | 1.04 |
| CCAAGTGATG | 1.04 |
| CCAAGTTATT | 0.994 |
| CCAAGTTCAT | 0.999 |
| CCAATAGGCT | 1.01 |
| CCAATGCCAC | 1.81 |
| CCAATGCCTG | 1.12 |
| CCAATTCCCA | 1.01 |
| CCAATTGGCG | 1.02 |
| CCACAAAAAG | 1.9 |
| CCACAAAAAT | 1.04 |
| CCACAACCGC | 1.23 |
| CCACACAGCA | 1.28 |
